The source gives no read counts; variants with many changes may rest on few reads.

B1: LINE1-mini (parent)
chain: GGCAGAGCUCAACACAGCGUGGCAAAGUGGCUGUGGCUAGACUGCC

In the data set the parent is B1. The data set is described as follows: self-cleavage, relative activity (ratio to wild type); higher = more cleavage; in vitro, sequencing; the parent is a self-cleaving ribozyme.
GGCAGAGCUCAACAUAGCGUGGCAAAGGGGCAAUGGCUAGACUGCC [C15U U28G U32A G33A]: the self-cleavage stood at 0.02. GGCAGAGCUCAACACCCCGUGGCAAACUGGCUGUGUCUAGACUGCC [A16C G17C G27C G36U]: the self-cleavage was found to be 0.19. Then GGCAGAGCUCAACACCGCGUGGAAAAGUGCCUGUGGCUUGACUCCC [A16C C23A G30C A39U G44C], with 0. Then GGCAGAGCUCAACAUAGCGUGGCAAAGUGGCCUUGGCUAGGCUGCC [C15U U32C G33U A41G], with 0.07; and GGCAGAGCUCAACAUAGCGGGGCAAAGUGGCUGUGGGUAGACUGCC [C15U U20G C37G], with 0.01.

For the variant GGCAGAGCUCAACACCGCGUGGAAAAGUGACUGUGGCUAUACUGCC [A16C C23A G30A G40U], the self-cleavage is 0.08. Then GGCAGAGCUCAACAUAGCGUGGCAAAGGGGCUGUGGCUAGACCGCC [C15U U28G U43C], with 0.05.

Take GGCAGAGCUCAACACCGCGUGGCAAAGUGGCUGUGGGUAAACUGCC [A16C C37G G40A]: the self-cleavage was found to be 0.08. Then GGCAGAGCUCAACACCUCGUGGCCAAGUGGCGGUGGCUAGACUGCC [A16C G17U A24C U32G], with 0.06; and GGCAGAGCUCAACACCGAGUGGCAAAGUGGCUGUGGCUAGAGUUCC [A16C C18A C42G G44U], with 0.12; and GGCAGAGCUCAACACCGCUGGCCAAAGUGGAUGUGGCUAGACUGCC [A16C G19U U20G G22C C31A], with 0.01. As for GGCAGAGCUCAACAUAGCGUGGCAAAGUGGCAGUGGCUAGACAGCC [C15U U32A U43A], the figure is 0.11; as for GGCAGAGCUCAACAUAGCGGGGCAAAGUGGCUCUGGCUAGACCGCC [C15U U20G G33C U43C], 0.06. Consider GGCAGAGCUCAACACCGCUUGGCAAAGUGGCUGUGGCUAGACUGCG [A16C G19U C46G], for which the self-cleavage stood at 0.07. Then GGCAGAGCUCAACACCGCACGGCAAAGUGGCUGUGGCUAGACUGCC [A16C G19A U20C], with 0.28. As for GGCAGAGCUCAACACCGCGUGGCACAGAGUCUGUGGCUAGACCGUC [A16C A25C U28A G30U U43C C45U], the figure is 0.04; as for GGCAGAGCUCAACACCGCGUGGCAAAGUGGCUGUGGCUUGACUGAC [A16C A39U C45A], 0.05. Then GGCAGAGCUCAACACCUCGUGGCAAAGUGGCUGUGGCUAGAGUGUC [A16C G17U C42G C45U], with 0.02; and GGCAGAGCUCAACACCGCAAAGCAAAGUGGCUGUGGCUAGACUGGC [A16C G19A U20A G21A C45G], with 0.05; and GGCAGAGCUCAACAUAGCGCGGCACAGUGGCUGUGGCUAGACUGCC [C15U U20C A25C], with 0.25. On to GGCAGAGCUCAACACCCCGUGGCAAAUUGGAUGAGGCUAGACUGCC [A16C G17C G27U C31A U34A], for which the self-cleavage was found to be 0.02. Then GGCAGAGCUCAACACCGCAUGGCAAAGUGGCUGUGGCUUGACUGCC [A16C G19A A39U], with 0.03. Then GGCAGAGCUCAACACCGCGUGGCAAUGUGGCUGUGACUAGACUGCC [A16C A26U G36A], with 0.14; and GGCAGAGCUCAACACCGCGUGGCAAAGUGGUUGUGGGUAGACUGCC [A16C C31U C37G], with 0.03.

Consider GGCAGAGCUCAACACCGCGUAGCAAAGUGGCUGUGGCUAGACUGCU [A16C G21A C46U], for which the self-cleavage amounted to 0.06. Consider GGCAGAGCUCAACAUAGCGUGGCAAAGUGGCCGUGGCUAGGCUGCC [C15U U32C A41G], for which the self-cleavage stood at 0.02. As to GGCAGAGCUCAACAUAGCGGGGCAAAGCAGCUGUGGCGAGAAUGCC [C15U U20G U28C G29A U38G C42A], the self-cleavage came out at 0.05. Then GGCAGAGCUCAACAUAGCGGGGAAAAGAGGCUGUGGCUAGAAUGCC [C15U U20G C23A U28A C42A], with 0.02; and GGCAGAGCUCAACACCGCGUGGCAAAGUGGCUGUGGCUUGAUUGCC [A16C A39U C42U], with 0.01. Then GGCAGAGCUCAACACCGCGUUGCAAAGUGGCUGUGGCUAGACUGUU [A16C G21U C45U C46U], with 0.04; and GGCAGAGCUCAACACCGCGUGGCAAAGUGGAGGUGGCUAGACUGCC [A16C C31A U32G], with 0.09; and GGCAGAGCUCAACACCGAGUGGCAAAGUGGCUGCGGCUAGACUGUC [A16C C18A U34C C45U], with 0.02. In the case of GGCAGAGCUCAACAUAGCGGGGCAAAGUGGCUGUGGCUAGUCUGCC [C15U U20G A41U], the self-cleavage was 0.29. Take GGCAGAGCUCAACACCGCGUGGCGAAGUGGCGGUGGCUAGACUGCC [A16C A24G U32G]: the self-cleavage is 0.2. As for GGCAGAGCUCAACACCGCGUGGCAAUGUGGCUGUGGGUAGACUGCC [A16C A26U C37G], the figure is 0.06. As for GGCAGAGCUCAACACCGCCUGGCAAAGUGGCUGAGGCUAGACUGCC [A16C G19C U34A], the figure is 0; as for GGCAGAGCUCAACACCGCGUGGCUAAGUGGCCGUGACUAGACUGCC [A16C A24U U32C G36A], 0.01. Then GGCAGAGCUCAACAUAGCGUGGCAAAGUGGCUGUGGCAAGAUUCCC [C15U U38A C42U G44C], with 0.27; and GGCAGAGCUCAACACCGCGUGGCAAAGUGGAUGUGGCUAAACUGCC [A16C C31A G40A], with 0.01. On to GGCAGAGCUCAACACCGCGUGGCUAAGUGGCUGUGGCUCGACUGCC [A16C A24U A39C], for which the self-cleavage was 0.04. Then GGCAGAGCUCAACACCGCGUGGCUUAGUGGCUGUGGCUAGACUGCC [A16C A24U A25U], with 0.07; and GGCAGAGCUCAACACCGCGUGGCAAAGUGGCUGUGGCUAGAAUGCA [A16C C42A C46A], with 0.13. As for GGCAGAGCUCAACACCGCUUGGAAAAAUGGCUGUAGCUAGACUGCC [A16C G19U C23A G27A G35A], the figure is 0.25; as for GGCAGAGCUCAACAUAGCGUGGCAAAGGGGCUGUGGCUACCCUGCC [C15U U28G G40C A41C], 0.02; as for GGCAGAGCUCAACACCGCGUCGCAAAGCGGCUGUGGCUAGACUUCC [A16C G21C U28C G44U], 0.02.

In the case of GGCAGAGCUCAACACCGAGUGGCAAAGUGGCUGUGUCGAGACGACC [A16C C18A G36U U38G U43G G44A], the self-cleavage turned out to be 0.01. As for GGCAGAGCUCAACAUAGCGUGGCAAAGUGGCGGUGGCUACACUGCC [C15U U32G G40C], the figure is 0.08; as for GGCAGAGCUCAACACCGCGUAGAAAAGUGGCUGUGGCUAGACUGCC [A16C G21A C23A], 0.06.

Regarding GGCAGAGCUCAACACCGCGUGGCAAAGUGGGCGUGGCUAGACUGCC [A16C C31G U32C], the self-cleavage was 0.05. As for GGCAGAGCUCAACAUAGCGAGGCAAAGUGGCUGUUGCGAGACUGAC [C15U U20A G35U U38G C45A], the figure is 0; as for GGCAGAGCUCAACACCGCGUGGCAAAGUGGCUGUGGCUGGGCUGCC [A16C A39G A41G], 0; as for GGCAGAGCUCAACACCGCCUGGCAAAGUGGCUGUGGCUAGAUUGCC [A16C G19C C42U], 0.04. For the variant GGCAGAGCUCAACACCGCGUCGCAAAGAGGCUGUGGCUAGACUGUC [A16C G21C U28A C45U], the self-cleavage amounted to 0.17. Then GGCAGAGCUCAACAUAGCGUGGCAAAGAGGCUGUGACUAGACUGCC [C15U U28A G36A], with 0.13; and GGCAGAGCUCAACACCGCGUGGCAAAGUGGCUGUGGCUUGACUACU [A16C A39U G44A C46U], with 0.01. Then GGCAGAGCUCAACAUAGCGAGGCAAAGCGGCUAUGGCUUGACUGCC [C15U U20A U28C G33A A39U], with 2.81.
